Results as given in the supplement of paper PMC7826260.
This is one part of the list. Cleavage of a single-stranded DNA pool by Rep nickase domains was read by sequencing (1 h at 37 °C, 3 µM enzyme); the outer parts of the 90-letter strands are left off. Values are log2 of uncut reads against the no-enzyme pool; strong cutting gives strongly negative numbers. There is no active / inactive call. Counts are relative to all reads; uncut strands gain when others are lost, and binding without cutting may add a little.

Legend:
Test in all cases: uncleaved DNA left, log2 of reads against the no-enzyme library (log2 ratio); higher = less cleavage (more negative = more Rep cleavage of the k-mer); sequences stand for … in CTCGTCCG…ACCGGAGA
[1] = system: T1, Rep nickase domain of Muscovy duck circovirus
T1 sequence (protein, residues 1-111, tag omitted): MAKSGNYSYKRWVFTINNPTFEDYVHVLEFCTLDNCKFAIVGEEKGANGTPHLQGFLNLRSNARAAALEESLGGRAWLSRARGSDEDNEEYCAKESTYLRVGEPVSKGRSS
Protocol: (§1)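 A pool of 90-nt single-stranded DNAs with seven random bases just before the constant AC of the nick site (name = the seven bases) was cut by 3 µM recombinant His6-SUMO-tagged Rep nickase domain (300 nM DNA, 50 mM HEPES pH 8.0, 50 mM NaCl, 1 mM MnCl2, 1 h, 37 °C, three replicates). Uncut DNA was amplified and sequenced.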

[2] = system: T2, Rep nickase domain of banana bunchy top virus
T2 sequence (protein, residues 1-94, tag omitted): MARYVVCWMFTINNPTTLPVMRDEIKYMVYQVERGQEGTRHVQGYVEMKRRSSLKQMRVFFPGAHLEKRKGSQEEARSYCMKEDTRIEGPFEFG
Protocol: as §1

[3] = system: T3, Rep nickase domain of cabbage leaf curl virus
T3 sequence (protein, residues 1-116, tag omitted): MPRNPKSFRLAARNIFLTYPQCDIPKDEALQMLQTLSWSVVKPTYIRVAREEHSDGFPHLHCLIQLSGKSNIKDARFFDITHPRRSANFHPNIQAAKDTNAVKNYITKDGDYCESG
Protocol: as §1

[4] = system: T4, Rep nickase domain of chickpea chlorotic dwarf virus
T4 sequence (protein, residues 1-124, tag omitted): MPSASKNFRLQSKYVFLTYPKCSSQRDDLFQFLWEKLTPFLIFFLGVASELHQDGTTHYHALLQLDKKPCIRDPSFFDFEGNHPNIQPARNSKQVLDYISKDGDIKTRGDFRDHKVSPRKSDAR
Protocol: as §1

[5] = system: T5, Rep nickase domain of faba bean necrotic yellows virus
T5 sequence (protein, residues 1-98, tag omitted): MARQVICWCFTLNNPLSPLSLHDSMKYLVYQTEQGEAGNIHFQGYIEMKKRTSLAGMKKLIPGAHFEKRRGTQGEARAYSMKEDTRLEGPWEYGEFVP
Protocol: as §1

[6] = system: T6, Rep nickase domain of maize striate mosaic virus
T6 sequence (protein, residues 1-117, tag omitted): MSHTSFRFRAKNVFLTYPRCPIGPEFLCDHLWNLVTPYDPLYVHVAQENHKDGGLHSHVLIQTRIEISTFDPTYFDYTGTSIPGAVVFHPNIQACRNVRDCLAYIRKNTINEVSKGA
Protocol: as §1

[7] = system: T7, Rep nickase domain of porcine circovirus 2
T7 sequence (protein, residues 2-116, tag omitted): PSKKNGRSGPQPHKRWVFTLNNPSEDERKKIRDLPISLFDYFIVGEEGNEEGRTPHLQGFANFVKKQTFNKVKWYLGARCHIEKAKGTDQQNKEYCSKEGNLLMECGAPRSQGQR
Protocol: as §1

[8] = system: T8, Rep nickase domain of tomato golden mosaic virus
T8 sequence (protein, residues 1-124, tag omitted): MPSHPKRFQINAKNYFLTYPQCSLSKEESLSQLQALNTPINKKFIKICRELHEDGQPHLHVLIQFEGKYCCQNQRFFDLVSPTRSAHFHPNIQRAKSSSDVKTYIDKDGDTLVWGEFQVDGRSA
Protocol: as §1

[9] = system: T9, Rep nickase domain of tomato yellow leaf curl virus
T9 sequence (protein, residues 1-136, tag omitted): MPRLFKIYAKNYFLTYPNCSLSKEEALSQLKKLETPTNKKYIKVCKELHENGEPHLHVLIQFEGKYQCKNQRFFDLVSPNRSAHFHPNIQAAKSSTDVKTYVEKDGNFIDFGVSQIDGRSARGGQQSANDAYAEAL
Protocol: as §1

[10] = system: T10, Rep nickase domain of wheat dwarf virus
T10 sequence (protein, residues 1-137, tag omitted): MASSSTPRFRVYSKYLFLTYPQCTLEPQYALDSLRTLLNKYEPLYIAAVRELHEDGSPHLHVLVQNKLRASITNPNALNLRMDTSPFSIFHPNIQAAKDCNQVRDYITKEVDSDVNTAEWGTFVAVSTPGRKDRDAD
Protocol: as §1

| Sequence | uncleaved DNA left (log2) [1] | uncleaved DNA left (log2) [2] | uncleaved DNA left (log2) [3] | uncleaved DNA left (log2) [4] | uncleaved DNA left (log2) [5] | uncleaved DNA left (log2) [6] | uncleaved DNA left (log2) [7] | uncleaved DNA left (log2) [8] | uncleaved DNA left (log2) [9] | uncleaved DNA left (log2) [10] |
| --- | --- | --- | --- | --- | --- | --- | --- | --- | --- | --- |
| TTAGCAT | -0.0478 | -0.0153 | 0.127 | 0.205 | -0.0617 | -0.279 | -0.0384 | -0.0679 | -0.0106 | 0.0234 |
| CGTCCCC | -0.0959 | 0.00216 | 0.128 | 0.148 | -0.0843 | 0.00895 | -0.245 | -0.231 | -0.0191 | -0.0121 |
| CCAAGTT | -0.143 | -0.0753 | -0.257 | -0.45 | -0.186 | 0.745 | -0.017 | -0.157 | -0.242 | -0.255 |
| AGGCCTC | -0.0191 | 0.0565 | 0.54 | 1.05 | -0.111 | 1.3 | -0.0842 | 0.00545 | 0.0614 | 0.116 |
| GAAACTC | 0.084 | 0.149 | 0.131 | -0.0642 | 0.0425 | 0.738 | 0.0217 | 0.0762 | 0.131 | 0.0851 |
| AGGCCGG | 0.257 | 0.101 | 0.422 | 0.973 | 0.197 | 1.07 | 0.2 | 0.159 | 0.0982 | 0.135 |
| CTAGTCA | -0.0154 | 0.119 | 0.0794 | -1.04 | -0.0285 | -0.57 | 0.0312 | -0.0596 | 0.0392 | 0.155 |
| ACCATTA | -0.0777 | 0.0137 | -0.481 | -1.22 | -0.103 | -0.992 | -0.00817 | 0.0282 | -0.125 | -0.108 |
| TCATCCG | -0.00932 | -0.0408 | -0.807 | -0.281 | 0.0439 | -1.03 | 0.104 | -0.0794 | -0.0203 | -0.0785 |
| ACGGGCA | -0.052 | 0.00787 | -0.144 | -0.253 | -0.147 | -0.428 | -0.264 | 0.0112 | -0.0494 | -0.146 |
| ACGTCGG | 0.0218 | -0.155 | -0.288 | -0.0866 | -0.0502 | -0.449 | 0.121 | 0.0737 | -0.264 | -0.167 |
| CGACCCT | -0.0463 | -0.0579 | 0.215 | 0.16 | 0.00935 | 0.562 | -0.118 | -0.226 | -0.0358 | -0.0246 |
| TATATGA | 0.0129 | 0.00929 | 0.0655 | -0.109 | 0.0596 | -0.651 | 0.033 | 0.0127 | -0.0183 | 0.0477 |
| CCCAGCT | -0.152 | -0.048 | -0.267 | -0.911 | -0.134 | -0.934 | -0.059 | -0.108 | -0.142 | -0.0189 |
| ACGGTAT | 0.0274 | -0.0964 | 0.0481 | 0.212 | -0.0774 | 0.453 | 0.00517 | 0.0461 | -0.098 | -0.0322 |
| TTCTACG | 0.0177 | -0.143 | -0.934 | -1.16 | 0.0638 | -1.27 | 0.0238 | -0.0262 | 0.0231 | -0.215 |
| GTATTAA | 0.00165 | 0.211 | 0.376 | 0.898 | 0.089 | 1.8 | 0.134 | 0.233 | 0.124 | 0.288 |
| GATTGCA | -0.186 | -0.0595 | -0.676 | -0.345 | 0.0288 | -0.794 | -0.251 | -0.00512 | 0.117 | 0.0387 |
| CCGGTGA | 0.0355 | 0.0378 | 0.153 | 0.183 | -0.0148 | 0.0569 | 0.0387 | -0.0372 | -0.0918 | -0.0183 |
| AAGATGA | 0.00294 | 0.0957 | 0.369 | 1.16 | 0.161 | 1.34 | 0.207 | 0.133 | -0.0496 | 0.0822 |
| GACTTGA | 0.106 | 0.12 | 0.243 | 0.673 | 0.099 | 0.594 | -0.148 | 0.127 | 0.0953 | 0.0563 |
| CGAAACG | 0.0515 | 0.101 | -0.677 | -0.349 | 0.125 | -1.04 | 0.208 | 0.0293 | 0.113 | -0.00786 |
| GCTGCGC | -0.186 | -0.11 | -0.664 | -0.104 | 0.034 | -0.742 | 0.123 | -0.0929 | -0.00353 | -0.0553 |
| CTAATGG | 0.00207 | 0.0197 | -0.0217 | 0.392 | -0.0201 | -0.521 | 0.0899 | 0.0192 | -0.00973 | 0.0691 |
| TCTTAAG | 0.139 | 0.0274 | -0.706 | -0.687 | 0.157 | -1.08 | 0.161 | 0.167 | 0.0769 | 0.0181 |
| CTGCTAC | -0.69 | -0.206 | -0.345 | -1.88 | 0.0056 | -0.923 | -1.13 | -0.147 | 0.0138 | -0.108 |
| ATACCTG | -0.0997 | -0.051 | 0.122 | 0.765 | -0.00518 | 1.06 | 0.0734 | -0.0342 | -0.139 | -0.0035 |
| GTTCCAA | -0.0473 | 0.0575 | 0.267 | 0.981 | 0.0166 | 1.77 | 0.154 | 0.012 | 0.1 | 0.0895 |
| GAGTGGG | 0.167 | 0.0834 | -0.248 | -0.197 | 0.1 | -0.263 | 0.107 | 0.195 | 0.127 | 0.0204 |
| CACACTA | -0.232 | -0.113 | -0.331 | -2.66 | -0.00575 | -0.976 | -0.221 | -0.127 | -0.117 | -0.134 |
